The record followed here is PubChem BioAssay AID1508623 (National Center for Advancing Translational Sciences (NCATS), 2021).

The campaign covered roughly 48,000 compounds. About 450 (0.94%) were called active. Inconclusive results (about 19%) are left out. Calls come from the whole dose curve; as a rule, active = well fitted inhibition curve with a large enough effect; inconclusive = small, poorly fitted or top-dose-only effect; inactive = no such curve, though single readings can be large or run the other way. The list shows a part of the results.

This assay can be described thus: Primary qHTS for Identification of Small Molecule Inhibitors of Huntingtin Promoter Activity. Note: nearly all actives have a fitted effect of over 50% in size. The following applies: HEK293 HTT promoter firefly luciferase reporter (activity 0% = vehicle and -100% = no light), 24 h; series mostly up to 57.5 µM; activity change, negative = inhibition: at the top concentration. A digest of the protocol: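 Firefly luciferase readout (Dual-Glo, 10 min RT) after 24 h, 37 °C compound exposure (final up to 57.5 uM) of HEK293 reporter cells cultured 24 h beforehand; PTC124 at 50 uM final as control inhibitor; activity scaled vehicle 0%, zero RLU -100%.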
In the case of `Cc1ccc(CN(C(=O)COc2ccc(Cl)c(C)c2)c2ccccn2)o1`, the “activity change, negative = inhibition” value was inactive: -20.5%.
As to `O=C(CN1C(=O)COc2ccc(S(=O)(=O)N3CCOCC3)cc21)N1CCN(c2cccc(C(F)(F)F)c2)CC1`, the “activity change, negative = inhibition” value was inactive: -6.79%.
In the case of `C[C@]12CCC(=O)C=C1C=C[C@@H]1[C@@H]2CC[C@@]2(C)[C@H]1CC[C@@]21CCC(=O)O1` it was inactive: -24.8%.
Then `Cc1oc2ncn(C)c(=O)c2c1C(=O)Nc1ccccn1`, with inactive: -7.7%; and `COc1cc(C2c3c(-c4c(C)cc(C)cc4O)n[nH]c3C(=O)N2CCO)cc(OC)c1OC` (configuration not stated), with inactive: -24.6%.
In the case of `Cc1nc2nc(SCc3c(F)cccc3Cl)nn2c(C)c1Cc1ccccc1` it was inactive: 25.8%; in that of `Cc1ccc(-c2cc(-c3ccc4c(c3)NC(=O)CO4)nc3c2COc2ccc(C)cc2-3)cc1`, inactive: -11.8%; in that of `COc1ccc(OC)c(CNC(=O)c2cc3cc4ccc(OC)cc4nc3o2)c1`, inactive: 3.12%.
Consider `Cc1cc(NC(=O)c2ccccc2Cl)ccc1NC(=O)c1ccccc1`, for which the “activity change, negative = inhibition” value was inactive: 10.4%.
In the case of `COc1ccc(-c2noc(COc3cc(C)c(Br)c(C)c3)n2)cc1OC` it was inactive: -2.29%; in that of `COC(=O)[C@@H](N)Cc1ccc(O)c(O)c1`, inactive: -3.67%.
In the case of `Cc1ccc(C(=O)/C=C/c2cn(CC(O)CN3CCc4ccccc43)c3ccccc23)cc1` (configuration not stated) it was inactive: -30.6%.
Then `CCOc1cc2sc(N3CCC(C(=O)Nc4ccccc4Cl)CC3)nc2cc1Br`, with inactive: 90.6%.
`Cc1ccc(CN2CCC(CNC(=O)c3cc4ccc5cccnc5c4[nH]3)CC2)cc1`: the “activity change, negative = inhibition” value was inactive: -23.7%.
Then `Cc1cc(S(=O)(=O)C(CNC(=O)COc2ccccc2)c2cccs2)ccc1F` (configuration not stated), with inactive: -6.73%; and `Cc1ccc(-c2nn(CC(=O)NC3CCCC3)c3c2cnc2ccc(F)cc23)cc1C`, with inactive: 16.7%.
As for `COc1ccc(NC(=O)CCN2CCN(CCO)CC2)c(OC)c1`, the “activity change, negative = inhibition” value was inactive: -7.68%.
In the case of `O=C(Nc1ccc2nc(SCc3ccccc3)sc2c1)c1cccc(F)c1` it was inactive: -13.5%; in that of `COc1ccc(OCCSc2nc(C)c(Cc3ccccc3)c(=O)[nH]2)cc1`, inactive: -10.7%.
Take `COc1ccc(Oc2nc3c(c(=O)n(C)c(=O)n3C)n2Cc2ccccc2Cl)cc1`: the activity change, negative = inhibition is inactive: -23% [at 11.5 µM].
Then `COc1ccccc1Cn1cc(C(=O)c2ccc(Cl)cc2)c(=O)c2cc3c(cc21)OCCO3`, with inactive: -6.24%; and `CN1CCN(C(=O)c2ccc3c(c2)N(Cc2c(F)cccc2Cl)C(=O)c2ccccc2S3)CC1`, with inactive: -31.6%.
Then `Cc1ccccc1C(=O)Nc1nnc(SCc2cc(=O)n3ccccc3n2)s1`, with inactive: -3.09%.
Consider `CCOc1ccc(C(=O)CSc2nnc3cc(C)c4ccccc4n23)cc1`, for which the “activity change, negative = inhibition” value is inactive: -8.23%.
For `CCOc1cc(C(=O)Nc2nnc3n2CCS3)cc(OCC)c1OCC`, the “activity change, negative = inhibition” value is inactive: -4.15%.
In the case of `COc1ccccc1CNC(=O)COc1cc(=O)n(C)c2ccccc12` it was inactive: 17.4%; in that of `Cc1ccc(N(CC(=O)NCC(C)c2ccccc2)S(=O)(=O)N(C)C)cc1` (configuration not stated), inactive: 0%; in that of `COc1cc(Cl)c(C)cc1Nc1nc2ccccc2nc1NS(=O)(=O)c1ccccc1`, inactive: 58.8%.
In the case of `Cc1ccc(N2CCN(C(=O)NCc3noc4ccccc34)CC2C)cc1` (configuration not stated) it was inactive: -28.1%; in that of `COc1ccc(S(=O)(=O)n2nc(C)c(S(=O)(=O)N3CCCCCC3)c2C)cc1OC`, inactive: -12.6%; in that of `CCCOc1ccc(C(=O)N(Cc2cccs2)c2ccc(C)cc2)cc1`, inactive: -13.7%.
Then `COc1ccc(Cl)cc1S(=O)(=O)N1CCN(Cc2cccc(F)c2)CC1`, with inactive: -30.3%.
Take `CCOC(=O)c1c(C)oc2ncnc(NCCCN3CCN(c4cc(C)ccc4C)CC3)c12`: the “activity change, negative = inhibition” value is inactive: -19.6%.
In the case of `COc1ccc(-c2c3c(nc4sc(C(=O)Nc5ccc(F)cc5)c(N)c24)CC(C)(C)CC3=O)cc1`, the “activity change, negative = inhibition” value is inactive: -2.72%.
In the case of `CC(=O)c1cccc(NC(=O)CSc2nnc3ccc(-c4ccc(C)cc4)nn23)c1` it was inactive: -16.8%.
Then `Cc1cc2nc(-c3ccc(Cl)cc3)cc(C(F)(F)F)n2n1`, with inactive: -14%; and `Nc1ccncc1N`, with inactive: -1.93%; and `Cc1ccccc1-c1nc(C(N)=O)c2c(n1)n(-c1ccc3c(c1)OCO3)c(=O)n2C`, with inactive: -19.7%.
Then `CN(C)S(=O)(=O)c1ccc2c(c1)N(CC(=O)NCc1cccc(Br)c1)C(=O)CS2`, with inactive: -21.8%; and `O=C(NCc1ccco1)C1CCN(C(=O)N2CCOc3ccc(Cl)cc32)CC1`, with inactive: -1.78%.
Turning to `Cc1ccc(-c2nnc(NC(=O)c3ccc4c(c3)OCCO4)o2)c(C)c1`, the “activity change, negative = inhibition” value is inactive: -11%.
In the case of `O=C1CC(c2nnc(Cc3ccc(Cl)cc3)o2)CN1c1ccccc1` (configuration not stated) it was inactive: -14.3%.
In the case of `CCn1c(=N)c(C(=O)NC2CCCCC2)cc2c(=O)n3cccc(C)c3nc21`, the “activity change, negative = inhibition” value was inactive: -8.33%.
Then `O=c1cc2nc(-c3cccs3)nc(SCCOc3ccc(Cl)cc3)n2[nH]1`, with inactive: -22.5%; and `COc1ccccc1-c1nnc2n(CCc3ccccc3)c(=O)c3ccccc3n12`, with inactive: 4.54%.
Then `Cc1ccc(C)c(Cn2c(=O)n(Cc3ccc(C(=O)NC4CCN(Cc5ccccc5)CC4)cc3)c(=O)c3ccccc32)c1`, with inactive: -10.2%; and `COc1cccc(-n2cc(C(=O)Oc3cccc(C(F)(F)F)c3)c3ccccc3c2=O)c1`, with inactive: -11.2%.
In the case of `CC(=O)N1c2ccccc2CC1C(=O)N1CCN(c2cccc(Cl)c2)CC1` (configuration not stated) it was inactive: -14.7%.
As to `O=C(CC1C(=O)N(c2ccc(F)cc2)C(=O)N1Cc1ccc2c(c1)OCO2)Nc1ccc(F)cc1` (configuration not stated), the “activity change, negative = inhibition” value is inactive: -22.5%.
Then `COc1cccc(CNC(=O)CN2C(=O)CCCc3ccccc32)c1OC`, with inactive: 0%.
Consider `CCOC(=O)c1cnc2c(C)cccc2c1NCCc1ccc(OC)c(OC)c1`, for which the “activity change, negative = inhibition” value was inactive: -28.6%.
With `Nc1c(-c2nc(-c3cccs3)no2)nnn1-c1cccc(F)c1`, the “activity change, negative = inhibition” value was inactive: 98.5%.
Then `Cc1ccc(C)c(CN2C(=O)c3ccccc3S(=O)(=O)c3ccc(C(=O)N4CCCC4)cc32)c1`, with inactive: -27.8%; and `CCOC(=O)CSc1nc2c(sc3ccccc32)c(=O)n1Cc1ccc(C)cc1`, with inactive: -7.9%.
Then `CC(=O)NCCNc1nc2c(-c3ccc(C)cc3)nnn2c2ccccc12`, with inactive: 2.62%; and `CCc1sc(Nc2ccc(C)cc2Br)nc1-c1cc2cccc(OC)c2oc1=O`, with inactive: -25.8%; and `CCCN(CCC)C(=O)Cn1c(=O)n(-c2ccc(C)cc2)c(=O)c2ccc(C(=O)NCc3ccccc3Cl)cc21`, with inactive: -19.4%.
Then `CNC(=O)C1CCN(Cc2cc3ccccc3n2Cc2ccccc2C)CC1`, with inactive: -26.4%; and `Cc1ccc(-c2cn3c(n2)sc2cc(C(=O)NCc4cccs4)ccc23)cc1`, with inactive: 3.55%.
`CCCCNC(=O)Cn1c(=O)cc(C)c2c(C)nn(-c3ccc(CC)cc3)c21`: the “activity change, negative = inhibition” value is inactive: -17.3%.
In the case of `CCC1CN(C(=O)N2CCC(C(=O)NCCc3ccc(C)cc3)CC2)c2ccccc2O1` (configuration not stated), the “activity change, negative = inhibition” value was inactive: -26.9%.
Then `CCOCCCNC(=O)CCC(=O)NNc1nc2ccccc2c2nc(-c3ccccc3)nn12`, with inactive: -4.72%.
